The results in this text go back to PubChem BioAssay AID1508623 (National Center for Advancing Translational Sciences (NCATS), 2021).

The campaign covered roughly 48,000 compounds. About 450 (0.94%) were called active. Another 19% or so got no clear call; they are omitted. Calls follow the shape of the dose curve; as a rule, active = well fitted inhibition curve with a large enough effect; inconclusive = small, poorly fitted or top-dose-only effect; inactive = no such curve, though single readings can be large or run the other way. The list shows a part of the results.

The nature of the assay: Primary qHTS for Identification of Small Molecule Inhibitors of Huntingtin Promoter Activity. Also: nearly all actives have a fitted effect of over 50% in size. As to conditions: HEK293 HTT promoter firefly luciferase reporter (activity 0% = vehicle and -100% = no light), 24 h; series mostly up to 57.5 µM; activity change, negative = inhibition: at the top concentration. Summed up: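 HEK293 luciferase promoter-reporter cells (2,500/well) plated 24 h, then compounds added at up to 57.5 uM final for 24 h at 37 °C. Firefly luminescence by Dual-Glo, normalized to vehicle (0%) and zero RLU (-100%).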
On the technique in general: qHTS replaces the single test concentration by a dilution series.
On to `Cc1ccc(-c2nnn3c2nc(NCCc2ccc(Cl)cc2)c2ccccc23)cc1`, for which the “activity change, negative = inhibition” value was inactive: -6.36%.

In the case of `CCCOc1ccc(CNC(=O)Cn2ncn3c(cc4sc(CC)cc43)c2=O)cc1`, the “activity change, negative = inhibition” value was inactive: -1.11%. In the case of `O=C(c1ccc(C=Cc2n[nH]c3ccccc23)cc1)N1CCNCC1` it was inactive: 18.1%; in that of `Cc1c(C(=O)N2CCCCCC2)c(S(=O)(=O)NCc2ccc(Br)cc2)c(C)n1C`, inactive: -15.7%; in that of `Cc1ccc(-c2nc3ccccn3c2Nc2ccccc2C)s1`, inactive: -0.667%. `CCOc1ccc(CNC(=O)c2ccc3nc(C(C)C)oc3c2)cc1`: the “activity change, negative = inhibition” value was inactive: 1.1%.

As to `COC(=O)c1ccc(NC(=O)NCCn2nnc3cc(S(=O)(=O)N(C)C)ccc32)cc1`, the “activity change, negative = inhibition” value was inactive: -20.9%. Regarding `COc1ccc(Nc2cc(C(=O)NC3CCC(C)CC3)c3ccccc3n2)cc1OC` (stereo not given), the “activity change, negative = inhibition” value is inactive: 12.8%.

On to `Cn1c(=O)c(=O)n(C)c2cc(S(=O)(=O)CCC(=O)Nc3ccc(F)cc3)ccc21`, for which the “activity change, negative = inhibition” value is inactive: -19.8%. On to `Cc1oc2ncnc(N3CCOCC3)c2c1C(=O)N(Cc1ccccc1)C(C)C`, for which the “activity change, negative = inhibition” value was inactive: -8.63%. In the case of `COc1ccc(OC(=O)c2nc(SCc3ccc(F)cc3)ncc2Cl)cc1`, the “activity change, negative = inhibition” value is inactive: -3.56%. In the case of `Cc1ccc(C2=NN(CC(=O)NCCC(C)C)C(=O)CC2)cc1` it was inactive: -9.84%. In the case of `CCOC(=O)c1cc(OC(=O)c2ccc(C)cc2)n(-c2ccccc2)n1` it was inactive: -5.26%; in that of `COc1cccc(-c2nnc(-c3ccccc3NC(=O)c3cccc(C(F)(F)F)c3)o2)c1`, inactive: -0.374%; in that of `COc1ccc(NC(=O)c2ccco2)cc1NC(=O)COc1ccccc1`, inactive: -12.9%.

On to `CCOC(=O)c1ccc(NC(=O)c2c(NCc3cccs3)sc3c2CCCC3)cc1`, for which the “activity change, negative = inhibition” value is inactive: -31%. `CCc1ccc(S(=O)(=O)c2cn(C)c3cc(N4CCC(C)CC4)c(F)cc3c2=O)cc1`: the “activity change, negative = inhibition” value was inactive: -13.8%.

On to `Cn1c(=O)n(C)c2cc(N3CCOCC3)c(NC(=O)c3ccccc3Br)cc21`, for which the “activity change, negative = inhibition” value is inactive: -4.46%. The value for `COc1ccc(CNC(=O)CN2C(=O)CSc3ccc(S(=O)(=O)N4CCOCC4)cc32)c(OC)c1` was inactive: -1.74%; that for `COc1cccc(CNC(=O)c2cc(S(=O)(=O)N3CCCCC3)cn2C)c1` was inactive: -11.1%.

As for `CC(=O)Nc1ccc(NC(=O)CSc2nc3ccccc3nc2N2CCC(C)CC2)cc1`, the “activity change, negative = inhibition” value is inactive: -29.7%.

Consider `COc1ccc(NC(=O)C(Cc2ccccc2)n2cccc2)cc1OC` (stereo not given), for which the “activity change, negative = inhibition” value is inactive: -18.9%. In the case of `Cc1ccccc1Cn1c2ccccc2c2cnn(CC(=O)NCCc3ccccc3)c(=O)c21` it was inactive: 12%; in that of `COc1ccc(NC(=O)CCS(=O)(=O)c2ccc3nc(C)sc3c2)cc1Cl`, inactive: -4.02%; in that of `Cc1ccc(OC(=O)CSc2nnc(-c3cccs3)o2)cc1`, inactive: 29.4%. Consider `CCn1c(=O)c2sccc2n2c(CCC(=O)N3CCN(c4ccc(C(C)=O)cc4)CC3)nnc12`, for which the “activity change, negative = inhibition” value was inactive: -7.16%.

On to `CNC(=O)c1c(NC(=O)/C=C/c2ccccc2Cl)sc2c1CCC2`, for which the “activity change, negative = inhibition” value was inactive: -20.3%. The value for `O=C(Cn1c(-c2cccs2)cc2cc(Cl)ccc21)N1CCN(c2ccccc2F)CC1` was inactive: -29.2%; that for `COc1ccc(C(=O)c2oc3ccccc3c2NC(=O)COc2cccc(C)c2C)cc1` was inactive: 5.17%. The value for `CCC(=O)Nc1ccc(CC)cc1-c1nc2ccccc2n(Cc2ccccc2)c1=O` was inactive: -24.5%. On to `CC1CCC(NC(=O)c2cc3c(Cl)nc4ccccc4c3s2)CC1` (stereo not given), for which the “activity change, negative = inhibition” value was inactive: 32.2%. The value for `CC(=O)Nc1ccccc1-c1nc2ccccc2n(Cc2cccc(Br)c2)c1=O` was inactive: 0.104%; that for `CCOc1ccccc1NC(=O)Cn1c(=O)n(Cc2ccccc2)c(=O)c2cccnc21` was inactive: -15.7%. For the compound `Cc1cc(C)c(NC(=O)Cn2nnc(-c3ccccc3)n2)c(C)c1`, the “activity change, negative = inhibition” value was inactive: 1.43%.

Turning to `CCOC(=O)C(C)NC(=O)C1CCN(c2ncnc3c2nc2n3CCCCC2)CC1` (stereo not given), the “activity change, negative = inhibition” value is inactive: 5.67%.

For `O=C(CN1CCCN(Cc2ccccc2Cl)S1(=O)=O)NCc1ccccc1`, the “activity change, negative = inhibition” value is inactive: -11.9%.

As to `Cc1cccn2c(=O)cc(COc3cccc(NC(=O)COc4ccc(F)cc4)c3)nc12`, the “activity change, negative = inhibition” value was inactive: 4.82%. `CC(C)N(Cc1ccccc1)C(=O)Cn1ncc2c([nH]c3ccccc32)c1=O`: the “activity change, negative = inhibition” value is inactive: -10.2%. The value for `CCC1CCCCN1CC(=O)Nc1cc(C)c2c(=O)oc3ccccc3c2n1` (stereo not given) was inactive: 3.65%; that for `O=C(CSc1nc2c([nH]c3ccccc32)c(=O)n1-c1ccc(Cl)cc1)N1CCOCC1` was inactive: -11%. In the case of `Cc1ccc(NC(=O)N2CCC(c3ccccc3)C2)cc1C` (stereo not given) it was inactive: 55.2%; in that of `O=S(=O)(NCC(c1ccco1)N1CCOCC1)c1cc(F)ccc1F` (stereo not given), inactive: -2.48%. For `Cc1cccc(NC(=O)CSc2c(C)cnc3c2c(=O)n(C)c(=O)n3C)c1C`, the “activity change, negative = inhibition” value was inactive: -2.82%. The value for `CCc1nn(C(CC)C(=O)NCc2ccc(F)cc2)c(=O)c2cc3occc3n12` (stereo not given) was inactive: -18%; that for `COc1cc(C(=O)NCC(c2ccco2)S(=O)(=O)c2ccccc2)cc(OC)c1OC` (stereo not given) was inactive: 1.57%; that for `CCCOc1ccc(C(=O)N(Cc2ccc(N(C)C)cc2)CC2CCCO2)cc1` (stereo not given) was inactive: -19.6%. The value for `O=C(c1cc2c(s1)-c1ccccc1OC2)N1CCN(c2ccccc2)CC1` was inactive: -13.2%. With `CC1=C(C(=O)Nc2ccccc2)C(CC(C)C)n2nc(SCc3ccccc3C)nc2N1` (stereo not given), the “activity change, negative = inhibition” value is inactive: 4%. The value for `CCCN(CCC)CCCNC(=O)Cn1ncc2c3ccccc3n(Cc3ccccc3)c2c1=O` was inactive: 17.3%. In the case of `Cc1ccc(NC(=O)Cc2csc(C)n2)c(C)c1` it was inactive: 12.3%; in that of `Cc1ccc(C(=O)Nc2ccc(OCc3cc(=O)n4c(C)csc4n3)cc2)cc1`, inactive: 5.05%. Take `Cc1cccc(NC(=O)CSc2nncn2C)c1`: the “activity change, negative = inhibition” value is inactive: -0.211%. For `Cc1ccc(Nc2c(-c3ccc(O)cc3)nc3cccc(C)n23)cc1`, the “activity change, negative = inhibition” value was inactive: 0%. The value for `Cc1nc(-c2ccc(Cl)cc2)sc1CCNC(=O)c1cccs1` was inactive: -35.3%; that for `CCN(CC)CCN(C(=O)c1ccco1)c1nc2ccc(Br)cc2s1` was inactive: 5.98%; that for `O=C(c1ccc2c(c1)N(Cc1ccccc1)C(=O)c1ccccc1S2(=O)=O)N1CCCCCC1` was inactive: 6.65%.

Take `CCC(C)NC(=O)CSc1nc2c(sc3ccccc32)c(=O)n1Cc1ccccc1Cl` (stereo not given): the “activity change, negative = inhibition” value was inactive: -24.7%.

Consider `Cc1ccc(C)c(CSc2nc3ccncc3n2CC(=O)Nc2ccc(N(C)C)cc2)c1`, for which the “activity change, negative = inhibition” value was inactive: -18.4%. In the case of `Cc1cccc2nc(-c3cccc(NS(=O)(=O)c4ccccc4)c3)cn12` it was inactive: -35.6%; in that of `Clc1ccccc1CNc1ncnc2c1c(-c1ccccc1)cn2-c1ccccc1`, inactive: -26.7%. As for `Cc1ccc(C)c(Cn2c3ccccc3c3cnn(CC(=O)NCc4ccccc4)c(=O)c32)c1`, the “activity change, negative = inhibition” value is inactive: 1.54%.

Regarding `Fc1ccccc1Cn1c(-c2ccccc2)nc2ccccc21`, the “activity change, negative = inhibition” value was inactive: -21.6%. The value for `COCCCNC(=O)CSc1nc2c(sc3ccccc32)c(=O)n1CCCC(=O)NCCOC` was inactive: -14.6%. In the case of `COc1cccc(N2CC(NC(=O)c3cccc(OC)c3OC)CC2=O)c1` (stereo not given) it was inactive: -17.5%; in that of `CC(=O)c1ccc(NC(=O)COCc2cc(-c3ccco3)on2)cc1`, inactive: -10.4%.
